Laboratory results taken from the GPR68 mutational scans of Howard et al. (2025).

B1: GPR68, Q15743 (parent)
chain: MGNITADNSSMSCTIDHTIHQTLAPVVYVTVLVVGFPANCLSLYFGYLQIKARNELGVYLCNLTVADLFYICSLPFWLQYVLQHDNWSHGDLSCQVCGILLYENIYISVGFLCCISVDRYLAVAHPFRFHQFRTLKAAVGVSVVIWAKELLTSIYFLMHEEVIEDENQHRVCFEHYPIQAWQRAINYYRFLVGFLFPICLLLASYQGILRAVRRSHGTQKSRKDQIQRLVLSTVVIFLACFLPYHVLLLVRSVWEASCDFAKGVFNAYHFSLLLTSFNCVADPVLYCFVSETTHRDLARLRGACLAFLTCSRTGRAREAYPLGAPEASGKSGAQGEEPELLTKLHPAFQTPNSPGSGGFPTGRLA

Columns and labels:
[1] = variants of: B1; assay: cAMP reporter score (Enrich2 score, wild type = 0); higher = more signal; HEK293T, FACS bins
[2] = variants of: B1; assay: surface expression score (Enrich2 score, wild type = 0); higher = more signal; HEK293T, FACS bins

Row | Variant | cAMP reporter score ([1]; pH 5.5) | cAMP reporter score ([1]; pH 6, modulator: ogerin) | cAMP reporter score ([1]; pH 6.5, modulator: ogerin) | surface expression score [2] | cAMP reporter score ([1]; pH 6)
1 | V253_W254insGSG | -0.775 | -0.65 | 0.318 | 2.07 | –
2 | W254A | 0.045 | -0.193 | -0.368 | -0.709 | -0.615
3 | W254C | 1.17 | 0.783 | -0.473 | -1.52 | -0.061
4 | W254D | -0.297 | -1.26 | -1.08 | -1.81 | -1.26
5 | W254E | -0.464 | -2.15 | -0.572 | 0.157 | -2.65
6 | W254F | 0.159 | 0.355 | – | 0.285 | –
7 | W254G | -0.789 | – | – | – | -0.425
8 | W254H | 2.14 | 1.43 | 0.784 | 0.676 | -0.012
9 | W254I | -0.11 | -0.489 | -0.77 | -0.025 | –
10 | W254K | 0.085 | – | -0.647 | -0.537 | -0.477
11 | W254L | 0.2 | 0.29 | -0.733 | -0.536 | -0.111
12 | W254M | -0.469 | -0.33 | -0.333 | -0.526 | –
13 | W254N | 0.339 | -0.044 | -0.212 | 0.157 | -0.348
14 | W254P | -1.17 | -1.06 | -1.57 | -0.595 | -0.453
15 | W254Q | 0.885 | 1.19 | 0.644 | -0.221 | 0.203
16 | W254R | 0.185 | 0.155 | -0.299 | -0.542 | -0.514
17 | W254S | 0.772 | 1.19 | -0.289 | -0.228 | -0.536

Row | Variant | cAMP reporter score ([1]; pH 5.5) | cAMP reporter score ([1]; pH 6, modulator: ogerin) | cAMP reporter score ([1]; pH 6.5, modulator: ogerin) | surface expression score [2] | cAMP reporter score ([1]; pH 6)
18 | W254V | 0.309 | 0.177 | -0.004 | -0.419 | -0.256
19 | W254Y | -0.76 | -0.219 | -0.762 | – | -0.986
20 | W254_A256del | -0.453 | -2.73 | -1.99 | -1.5 | 0.418
21 | W254_E255insG | -0.664 | -0.627 | -0.026 | 3.1 | -0.392
22 | W254_E255insGS | -1.2 | -1.45 | -1.29 | 0.969 | -0.867
23 | W254_E255insGSG | -0.63 | -2 | -0.704 | 1.72 | -1.02
24 | W254del | -0.309 | – | -0.728 | -2.03 | -0.604
25 | E255A | -0.361 | -1.15 | -1.77 | -0.928 | -1.24
26 | E255C | -1.31 | – | -0.442 | – | -2.2
27 | E255D | -0.91 | -0.961 | -0.647 | 0.371 | -0.412
28 | E255F | -1.92 | – | -2.85 | -0.047 | -0.784
29 | E255G | -1.17 | -1.49 | -1.13 | -0.334 | -0.529
30 | E255H | -1.34 | -1.45 | -1.04 | -0.223 | -0.929
31 | E255I | -1.19 | -1.27 | -1.3 | -1.51 | -1.13
32 | E255K | -1.56 | -1.75 | -0.771 | -1.53 | -1.62
33 | E255L | -1.19 | -1.06 | -0.888 | -1.5 | -1.75

Scores with a large standard error are left out. Two further conditions of the source, in which the scores hardly spread, are not listed. Read del as a deletion of the residues named and ins as an insertion between two positions. For some of these results: How much ogerin was present is not stated here.
